{
  "source": "the supplement of paper PMC8728848",
  "assay_in_all_cases": "glycan array binding signal (z-score within array); higher = stronger binding",
  "details_in_all_cases": "glycan notation: IUPAC condensed, linker removed",
  "key": {"[1]": {"molecular_target": "GlcNAc(b1-3)Gal(b1-4)GlcNAc(b1-2)[GlcNAc(b1-3)Gal(b1-4)GlcNAc(b1-6)]Man(a1-6)[GlcNAc(b1-3)Gal(b1-4)GlcNAc(b1-2)Man(a1-3)]Man(b1-4)GlcNAc(b1-4)GlcNAc", "outline": "(§1)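 Glycan array data were curated from 3228 arrays in the Consortium for Functional Glycomics database and kept only where the protein sequence was available. Glycan names were converted to IUPAC-condensed notation, and columns mapping to the same glycan were averaged. The binding signal is a within-array Z-score, averaged across arrays of the same protein sequence at different concentrations or buffers and across linkers. Negative Z-scores can be read as non-binding.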"}, "[2]": {"molecular_target": "GlcNAc(b1-3)Gal(b1-4)GlcNAc(b1-3)Gal(b1-4)GlcNAc", "outline": "as §1"}, "[3]": {"molecular_target": "GlcNAc(b1-3)Gal(b1-4)GlcNAc(b1-3)Gal(b1-4)GlcNAc(b1-2)Man(a1-3)[GlcNAc(b1-3)Gal(b1-4)GlcNAc(b1-3)Gal(b1-4)GlcNAc(b1-2)Man(a1-6)]Man(b1-4)GlcNAc(b1-4)GlcNAc", "outline": "as §1"}, "[4]": {"molecular_target": "GlcNAc(b1-3)Gal(b1-4)GlcNAc(b1-3)Gal(b1-4)GlcNAc(b1-2)Man(a1-3)[GlcNAc(b1-3)Gal(b1-4)GlcNAc(b1-3)Gal(b1-4)GlcNAc(b1-2)Man(a1-6)]Man(b1-4)GlcNAc(b1-4)[Fuc(a1-6)]GlcNAc", "outline": "as §1"}, "[5]": {"molecular_target": "GlcNAc(b1-3)Gal(b1-4)GlcNAc(b1-3)Gal(b1-4)GlcNAc(b1-2)[GlcNAc(b1-3)Gal(b1-4)GlcNAc(b1-3)Gal(b1-4)GlcNAc(b1-6)]Man(a1-6)[GlcNAc(b1-3)Gal(b1-4)GlcNAc(b1-3)Gal(b1-4)GlcNAc(b1-2)Man(a1-3)]Man(b1-4)GlcNAc(b1-4)[Fuc(a1-6)]GlcNAc", "outline": "as §1"}, "[6]": {"molecular_target": "GlcNAc(b1-3)Gal(b1-4)GlcNAc(b1-3)Gal(b1-4)GlcNAc(b1-3)Gal(b1-4)GlcNAc(b1-2)Man(a1-3)[GlcNAc(b1-3)Gal(b1-4)GlcNAc(b1-3)Gal(b1-4)GlcNAc(b1-3)Gal(b1-4)GlcNAc(b1-2)Man(a1-6)]Man(b1-4)GlcNAc(b1-4)GlcNAc", "outline": "as §1"}, "[7]": {"molecular_target": "GlcNAc(b1-3)Gal(b1-4)GlcNAc(b1-3)Gal(b1-4)GlcNAc(b1-3)Gal(b1-4)GlcNAc(b1-2)Man(a1-3)[GlcNAc(b1-3)Gal(b1-4)GlcNAc(b1-3)Gal(b1-4)GlcNAc(b1-3)Gal(b1-4)GlcNAc(b1-2)Man(a1-6)]Man(b1-4)GlcNAc(b1-4)[Fuc(a1-6)]GlcNAc", "outline": "as §1"}, "[8]": {"molecular_target": "GlcNAc(b1-3)Gal(b1-4)GlcNAc(b1-3)Gal(b1-4)GlcNAc(b1-3)Gal(b1-4)GlcNAc(b1-2)[GlcNAc(b1-3)Gal(b1-4)GlcNAc(b1-3)Gal(b1-4)GlcNAc(b1-3)Gal(b1-4)GlcNAc(b1-6)]Man(a1-6)[GlcNAc(b1-3)Gal(b1-4)GlcNAc(b1-3)Gal(b1-4)GlcNAc(b1-3)Gal(b1-4)GlcNAc(b1-2)Man(a1-3)]Man(b1-4)GlcNAc(b1-4)[Fuc(a1-6)]GlcNAc", "outline": "as §1"}, "[9]": {"molecular_target": "GlcNAc(b1-3)Gal(b1-4)GlcNAc(b1-3)Gal(b1-4)GlcNAc(b1-3)Gal(b1-4)GlcNAc(b1-3)Gal(b1-4)GlcNAc(b1-2)Man(a1-3)[GlcNAc(b1-3)Gal(b1-4)GlcNAc(b1-3)Gal(b1-4)GlcNAc(b1-3)Gal(b1-4)GlcNAc(b1-3)Gal(b1-4)GlcNAc(b1-2)Man(a1-6)]Man(b1-4)GlcNAc(b1-4)GlcNAc", "outline": "as §1"}, "[10]": {"molecular_target": "GlcNAc(b1-3)Gal(b1-4)GlcNAc(b1-3)Gal(b1-4)GlcNAc(b1-3)Gal(b1-4)GlcNAc(b1-3)Gal(b1-4)GlcNAc(b1-2)Man(a1-3)[GlcNAc(b1-3)Gal(b1-4)GlcNAc(b1-3)Gal(b1-4)GlcNAc(b1-3)Gal(b1-4)GlcNAc(b1-3)Gal(b1-4)GlcNAc(b1-2)Man(a1-6)]Man(b1-4)GlcNAc(b1-4)[Fuc(a1-6)]GlcNAc", "outline": "as §1"}, "[11]": {"molecular_target": "GlcNAc(b1-3)Gal(b1-4)GlcNAc(b1-3)Gal(b1-4)GlcNAc(b1-3)Gal(b1-4)GlcNAc(b1-3)Gal(b1-4)GlcNAc(b1-2)[GlcNAc(b1-3)Gal(b1-4)GlcNAc(b1-3)Gal(b1-4)GlcNAc(b1-3)Gal(b1-4)GlcNAc(b1-3)Gal(b1-4)GlcNAc(b1-6)]Man(a1-6)[GlcNAc(b1-3)Gal(b1-4)GlcNAc(b1-3)Gal(b1-4)GlcNAc(b1-3)Gal(b1-4)GlcNAc(b1-3)Gal(b1-4)GlcNAc(b1-2)Man(a1-3)]Man(b1-4)GlcNAc(b1-4)[Fuc(a1-6)]GlcNAc", "outline": "as §1"}, "[12]": {"molecular_target": "GlcNAc(b1-3)Gal(b1-4)GlcNAc(b1-3)Gal(b1-4)GlcNAc(b1-3)GalNAc", "outline": "as §1"}, "[13]": {"molecular_target": "GlcNAc(b1-3)Gal(b1-4)GlcNAc(b1-3)GalNAc", "outline": "as §1"}, "[14]": {"molecular_target": "GlcNAc(b1-3)Gal(b1-4)GlcNAc(b1-3)[GlcNAc(b1-3)Gal(b1-4)GlcNAc(b1-3)]GalNAc", "outline": "as §1"}, "[15]": {"molecular_target": "GlcNAc(b1-3)Gal(b1-4)GlcNAc(b1-6)[Gal(b1-3)]GalNAc", "outline": "as §1"}, "[16]": {"molecular_target": "GlcNAc(b1-3)Gal(b1-4)GlcNAc(b1-6)[GlcNAc(b1-3)Gal(b1-3)]GalNAc", "outline": "as §1"}, "[17]": {"molecular_target": "GlcNAc(b1-3)Gal(b1-4)GlcNAc(b1-6)[GlcNAc(b1-3)]Gal(b1-4)GlcNAc", "outline": "as §1"}, "GlcNAc(b1-3)GalNAc": {"molecular_target": "GlcNAc(b1-3)GalNAc", "outline": "as §1"}, "GlcNAc(b1-3)Man": {"molecular_target": "GlcNAc(b1-3)Man", "outline": "as §1"}, "[18]": {"molecular_target": "GlcNAc(b1-3)[GlcNAc(b1-4)][GlcNAc(b1-6)]GlcNAc", "outline": "as §1"}, "[19]": {"molecular_target": "GlcNAc(b1-3)[GlcNAc(b1-6)]Gal(b1-4)GlcNAc", "outline": "as §1"}, "[20]": {"molecular_target": "GlcNAc(b1-3)[GlcNAc(b1-6)]GalNAc", "outline": "as §1"}, "[21]": {"molecular_target": "GlcNAc(b1-4)Gal(b1-4)GlcNAc", "outline": "as §1"}},
  "note": "The list shows a part of the results.",
  "data": [
    {"binder": "Banana lectin (Musa acuminata) (protein) MNGAIKVGAWGGNGGSAFDMGPAYRIISVKIFSGDVVDGVDVTFTYYGKTETRHYGGSGGTPHEIVLQEGEYLVGMAGEVANYHGAVVLGKLGFSTNKKAYGPFGNTGGTPFSLPIAAGKISGFFGRGGKFLDAIGVYLEPLEHHHHHH", "values": [
      {"measurement": "glycan array binding signal (z-score)", "setting": "[1]", "result": -0.124},
      {"measurement": "glycan array binding signal (z-score)", "setting": "[2]", "result": -0.184},
      {"measurement": "glycan array binding signal (z-score)", "setting": "[3]", "result": -0.156},
      {"measurement": "glycan array binding signal (z-score)", "setting": "[4]", "result": -0.03},
      {"measurement": "glycan array binding signal (z-score)", "setting": "[5]", "result": -0.146},
      {"measurement": "glycan array binding signal (z-score)", "setting": "[6]", "result": -0.139},
      {"measurement": "glycan array binding signal (z-score)", "setting": "[7]", "result": -0.122},
      {"measurement": "glycan array binding signal (z-score)", "setting": "[8]", "result": -0.157},
      {"measurement": "glycan array binding signal (z-score)", "setting": "[9]", "result": -0.165},
      {"measurement": "glycan array binding signal (z-score)", "setting": "[10]", "result": -0.145},
      {"measurement": "glycan array binding signal (z-score)", "setting": "[11]", "result": -0.113},
      {"measurement": "glycan array binding signal (z-score)", "setting": "[12]", "result": -0.184},
      {"measurement": "glycan array binding signal (z-score)", "setting": "[13]", "result": -0.235},
      {"measurement": "glycan array binding signal (z-score)", "setting": "[14]", "result": -0.214},
      {"measurement": "glycan array binding signal (z-score)", "setting": "[15]", "result": -0.176},
      {"measurement": "glycan array binding signal (z-score)", "setting": "[16]", "result": -0.186},
      {"measurement": "glycan array binding signal (z-score)", "setting": "[17]", "result": -0.208},
      {"measurement": "glycan array binding signal (z-score)", "setting": "GlcNAc(b1-3)GalNAc", "result": -0.2},
      {"measurement": "glycan array binding signal (z-score)", "setting": "GlcNAc(b1-3)Man", "result": -0.24},
      {"measurement": "glycan array binding signal (z-score)", "setting": "[18]", "result": -0.209},
      {"measurement": "glycan array binding signal (z-score)", "setting": "[19]", "result": -0.181},
      {"measurement": "glycan array binding signal (z-score)", "setting": "[20]", "result": -0.212},
      {"measurement": "glycan array binding signal (z-score)", "setting": "[21]", "result": -0.202}
    ]}
  ]
}
